# In PubChem BioAssay AID624417 (National Center for Advancing Translational Sciences (NCATS), 2012):
# Hit rate of the full screen: of about 410,000 compounds, about 6,400 (1.6%) were called active. This list was built around the results that the source calls inconclusive (neither active nor inactive); the mix of calls is not that of the screen. Calls come from the whole dose curve; as a rule, active = well fitted inhibition curve with a large enough effect; inconclusive = small, poorly fitted or top-dose-only effect; inactive = no such curve, though single readings can be large or run the other way. No potency is given beside an inconclusive call; the fits are too rough.
# Molecular target: Glucagon-like peptide 1 receptor (Homo sapiens) (UniProt P43220)
# Assay: qHTS of GLP-1 Receptor Inverse Agonists (Inhibition Mode); note: nearly all actives have a fitted effect of over 55% in size
# Details: HEK293 GLP-1R CRE-luciferase, luminescence, 24 h, GLP-1R form is constitutively active; activity change, negative = inhibition: at 38.3 µM (top of the series) unless noted
# In short: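 Seeding at 200 cells/uL, 12 h culture, 24 hr compound treatment, then luciferase reagent and a luminescence read; cells are HEK293 stably expressing a constitutively active GLP-1R plus cAMP-responsive luciferase.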
# % is set by controls: 0 for no effect and ±100 for the full control effect; potency is the fitted concentration of half-maximal effect; tags give direction and shape of the fitted curve.
# UniProt P43220, sequence (P43220 whole entry, looked up): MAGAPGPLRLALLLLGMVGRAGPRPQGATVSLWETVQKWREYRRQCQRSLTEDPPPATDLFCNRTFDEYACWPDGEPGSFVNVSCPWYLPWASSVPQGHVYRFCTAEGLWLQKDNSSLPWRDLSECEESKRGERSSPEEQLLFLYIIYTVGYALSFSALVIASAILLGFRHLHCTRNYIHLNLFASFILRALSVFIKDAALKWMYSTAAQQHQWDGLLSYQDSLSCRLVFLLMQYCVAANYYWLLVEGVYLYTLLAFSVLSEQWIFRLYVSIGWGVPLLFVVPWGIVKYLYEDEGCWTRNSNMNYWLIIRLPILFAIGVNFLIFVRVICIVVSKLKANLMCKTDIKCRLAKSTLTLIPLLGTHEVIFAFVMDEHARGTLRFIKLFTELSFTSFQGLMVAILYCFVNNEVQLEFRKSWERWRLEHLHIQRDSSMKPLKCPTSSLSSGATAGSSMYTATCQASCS
Structure (SMILES),Potency,"activity change, negative = inhibition"
COc1ccccc1NC(=O)C(=O)NCC(c1ccco1)N1CCc2ccccc21 (centres undefined),"inconclusive [inhibitor, partial curve]",–
Cc1ccc(NC(=O)CN2CCC(C(=O)c3ccc(F)cc3)CC2)cc1,"inconclusive [inhibitor, partial curve, poor fit]",–
CCOc1ccc(NC(=O)c2cccc(OC(=S)N3CCOCC3)c2)cc1,"inconclusive [inhibitor, partial curve, poor fit]",–
CC1Cc2ccccc2N1c1ncnc(N)c1[N+](=O)[O-] (centres undefined),–,inactive: -76.3%
CCN(CC)C(=O)c1cccc(-c2csc(C(C)(NC(C)=O)c3ccccc3)n2)c1 (centres undefined),"inconclusive [inhibitor, partial curve, poor fit]",–
CC(C)n1c(NCc2ccc(N(C)C)cc2)nc2ccccc21,"inconclusive [inhibitor, partial curve, poor fit]",–
N#Cc1ccc(C(C(=O)NC2CCCCC2)n2c(=O)c(-c3ccccc3)nc3ccccc32)cc1 (centres undefined),"inconclusive [inhibitor, single point]",–
CC(Nc1nc(-c2ccccc2)nc2ccccc12)c1ccccc1 (centres undefined),"inconclusive [inhibitor, single point]",–
COc1cc(C(=O)OCc2cc(=O)n3ccsc3n2)cc(OC)c1OC,"inconclusive [inhibitor, full curve, poor fit]",–
CCn1c(COc2ccccc2C)nnc1SCC(=O)NCc1ccccc1,"inconclusive [inhibitor, single point]",–
CCN(C(=O)c1nn(C)c2c1CSc1ccccc1-2)c1cccc(C)c1,"inconclusive [inhibitor, single point]",–
COc1cc2nc(NCCc3ccc(Cl)cc3)n3nc(-c4ccccc4)nc3c2cc1OC,–,inactive: 14%
Clc1ccc(CSc2nnc(Cn3cnc4ccccc43)o2)cc1,"inconclusive [inhibitor, single point]",–
COC(=O)/C(C#N)=C/c1ccc(OC(=O)c2ccccn2)cc1,"inconclusive [inhibitor, single point]",–
COc1ccc(N2CCN(CCCNC(=O)c3sc4ncccc4c3-n3cccc3)CC2)cc1,"inconclusive [inhibitor, partial curve, poor fit]",–
CCN(Cc1nc2ccccc2c(=O)[nH]1)C(=O)c1cccc(NC(=O)c2cccs2)c1,"inconclusive [inhibitor, partial curve, poor fit]",–
CC(C)OCCCNC(=O)Cn1c(-c2cccs2)cc2cc(F)ccc21,"inconclusive [inhibitor, single point]",–
Cc1ccc(N/N=C/c2cccnc2)cc1,"inconclusive [inhibitor, full curve]",–
S=c1nc2ccccc2c2nc(-c3ccccc3Cl)[nH]n12,"inconclusive [inhibitor, full curve, poor fit]",–
O=C(NCCCn1ccnc1)/C(=C\c1ccc(Br)cc1)NC(=O)c1ccccc1,–,inactive: -20%

Structure (SMILES),Potency,"activity change, negative = inhibition"
COc1ccccc1C(=O)COC(=O)Cn1[nH]c(=O)c2ccccc2c1=O,–,inactive: -7.63%
Cc1ccc2sc(N(CCCN(C)C)C(=O)c3ccc(S(=O)(=O)N4CCc5ccccc5C4)cc3)nc2c1C,"inconclusive [inhibitor, partial curve, poor fit]",–
COc1ccc(Nc2oc(COc3cccc(C)c3)nc2C#N)cc1,"inconclusive [inhibitor, single point]",–
Cc1ccc(-c2noc(C3CCCN(C(=O)c4cccc(Cl)c4)C3)n2)o1 (centres undefined),"inconclusive [inhibitor, partial curve]",–
C[C@H](c1ccccc1)N1C[C@@H](COCc2ccccc2)Oc2cc(N3CCC[C@@H]3CO)ccc2S1(=O)=O,"inconclusive [inhibitor, single point]",–
Cn1cc(-c2coc3c(C(=O)Nc4ccccc4)cccc23)cn1,"inconclusive [inhibitor, partial curve, poor fit]",–
CN(Cc1ccccc1)C(=O)c1c[nH]c2ccc(S(=O)(=O)Nc3ccccc3F)cc2c1=O,–,inactive: -31.1%
COc1ccc(CN(C)CC(=O)NC(=O)NC2CCCCC2)cc1,"inconclusive [inhibitor, single point]",–
Cc1ccc(S(=O)(=O)N2CCN(c3cccc(C)c3)CC2)cc1,"inconclusive [inhibitor, single point]",–
COc1ccc(CNc2nc(-c3ccccc3)nn2C(=O)c2ccccc2OC)cc1,"inconclusive [inhibitor, single point]",–
O=C(Nc1ccc(F)c(Cl)c1)c1cc(C2CCCCN2C(=O)c2ccc(Cl)cc2)on1 (centres undefined),"inconclusive [inhibitor, single point]",–
O=C(Nc1ccccc1Cl)c1cc(C2CCCCN2S(=O)(=O)c2ccc(F)cc2F)on1 (centres undefined),"inconclusive [inhibitor, partial curve, poor fit]",–
O=C(CCSCc1ccccc1Cl)NCCc1ccccc1,"inconclusive [inhibitor, single point]",–
Cc1cccc(N=C2NN=C(c3c(C)[nH]c4ccccc34)CS2)c1,"inconclusive [inhibitor, partial curve, poor fit]",–
COC(=O)c1ccc(N2C(=O)CC(N(C)CCc3ccc(OC)c(OC)c3)C2=O)cc1 (centres undefined),–,inactive: 7.8%
CCCN1C(C)C(C(=O)OCC)=CN(Cc2ccc(Br)cc2)S1(=O)=O (centres undefined),"inconclusive [inhibitor, single point]",–
COc1ccc(CC(=O)Nc2cc3oc4ccccc4c3cc2OC)cc1,"inconclusive [inhibitor, partial curve, poor fit]",–
CNc1ccccc1-n1ccc(-c2ccccc2)n1,"inconclusive [inhibitor, single point]",–
CCN(CC)C(=O)C1=C(C)N(Cc2ccc(OC)cc2)C(=O)C(CC(=O)NCc2cccc3ccccc23)C1 (centres undefined),"inconclusive [inhibitor, single point]",–
